{
  "source": "the supplement of paper PMC3724861",
  "note": "The list shows a part of the results.",
  "data": [
    {"test_system": "T1, Caupolican (Caup) homeodomain DNA-binding domain", "T1 sequence": "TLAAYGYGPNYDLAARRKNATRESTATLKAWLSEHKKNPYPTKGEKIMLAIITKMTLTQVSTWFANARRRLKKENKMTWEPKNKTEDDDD", "experiment": "PBM E-score (8-mer, recovered from the published 9-mer minima) (E-score (dimensionless, -0.5 to 0.5)); Drosophila protein; higher = stronger relative binding preference, active = 0.31 or more", "procedure": "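Protein binding microarray (PBM): in vitro transcribed/translated Caupolican (Caup) homeodomain DNA-binding domain (residues 214-303) applied at 100 nM to a universal 8-mer PBM array (Agilent AMADID 015681). The 8-mer enrichment score (E-score, range -0.5 to 0.5) was computed, and each 9-mer score is the minimum E-score of its two constituent 8-mers. The E-score is the same for a 9-mer and its reverse complement; 0.31 is the stated binding threshold.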", "values": [
      {"sequence": "AGGCAGGG", "PBM E-score": "inactive: -0.102"},
      {"sequence": "GAAATACC", "PBM E-score": "inactive: 0.0151"},
      {"sequence": "GAAGCCCC", "PBM E-score": "inactive: -0.244"},
      {"sequence": "CAGCATGG", "PBM E-score": "inactive: 0.0496"},
      {"sequence": "CTTCATGA", "PBM E-score": "inactive: -0.0142"},
      {"sequence": "ATATGACC", "PBM E-score": "inactive: 0.021"},
      {"sequence": "AGCAATCA", "PBM E-score": "inactive: 0.0951"},
      {"sequence": "AGCCCGCC", "PBM E-score": "inactive: -0.245"},
      {"sequence": "GAACGCTC", "PBM E-score": "inactive: -0.129"},
      {"sequence": "ATCAGAAT", "PBM E-score": "inactive: 0.066"},
      {"sequence": "CTCTGTAC", "PBM E-score": "inactive: 0.137"},
      {"sequence": "CTACGTTC", "PBM E-score": "inactive: -0.0202"},
      {"sequence": "ACGCACCC", "PBM E-score": "inactive: -0.0794"},
      {"sequence": "GTACTAAA", "PBM E-score": "inactive: 0.229"},
      {"sequence": "CCTCCTAC", "PBM E-score": "inactive: -0.136"},
      {"sequence": "CCGACGTA", "PBM E-score": "inactive: -0.0642"},
      {"sequence": "GTCTCCAA", "PBM E-score": "inactive: -0.0607"},
      {"sequence": "CGATAGAC", "PBM E-score": "inactive: 0.0316"},
      {"sequence": "ATTTTTGG", "PBM E-score": "inactive: -0.0403"},
      {"sequence": "ACACTAAC", "PBM E-score": "inactive: 0.149"},
      {"sequence": "CACACCCA", "PBM E-score": "inactive: 0.0024"},
      {"sequence": "ACTAGTGC", "PBM E-score": "inactive: 0.0444"},
      {"sequence": "CAGGACTG", "PBM E-score": "inactive: -0.0782"},
      {"sequence": "GGAGGGAC", "PBM E-score": "inactive: -0.132"},
      {"sequence": "CTTACTAC", "PBM E-score": "inactive: 0.156"},
      {"sequence": "ATCGCCCC", "PBM E-score": "inactive: -0.134"},
      {"sequence": "CAACGGAG", "PBM E-score": "inactive: -0.125"},
      {"sequence": "CTTACAGC", "PBM E-score": "inactive: 0.0782"},
      {"sequence": "CCACTCAG", "PBM E-score": "inactive: -0.0569"},
      {"sequence": "CACCCGGA", "PBM E-score": "≥ -0.00956"},
      {"sequence": "CCCCGGAC", "PBM E-score": "inactive: -0.105"},
      {"sequence": "GTCGTCTA", "PBM E-score": "inactive: 0.0468"},
      {"sequence": "AGGCCTCA", "PBM E-score": "inactive: -0.195"},
      {"sequence": "CAAGAAGC", "PBM E-score": "inactive: -0.0853"},
      {"sequence": "AGTAAACA", "PBM E-score": "inactive: 0.235"},
      {"sequence": "CGTTTCGC", "PBM E-score": "inactive: -0.188"},
      {"sequence": "GCAACTAA", "PBM E-score": "inactive: 0.0557"},
      {"sequence": "CGAACGCG", "PBM E-score": "inactive: -0.0926"},
      {"sequence": "TCCCTCGA", "PBM E-score": "inactive: -0.113"},
      {"sequence": "GAGTTAGC", "PBM E-score": "inactive: -0.0248"},
      {"sequence": "ACCTTTGG", "PBM E-score": "inactive: -0.197"},
      {"sequence": "GTGCGCAA", "PBM E-score": "inactive: -0.09"},
      {"sequence": "AGGGGACT", "PBM E-score": "inactive: -0.177"},
      {"sequence": "CCTTCATA", "PBM E-score": "inactive: -0.00957"},
      {"sequence": "CGTCGTGA", "PBM E-score": "inactive: -0.0474"},
      {"sequence": "ACTAACGA", "PBM E-score": "inactive: 0.0387"},
      {"sequence": "AGTATAGC", "PBM E-score": "inactive: 0.013"},
      {"sequence": "GATAATCC", "PBM E-score": "inactive: 0.0237"},
      {"sequence": "AGAGCTGC", "PBM E-score": "inactive: -0.165"},
      {"sequence": "CGTAAGAA", "PBM E-score": "inactive: 0.00432"},
      {"sequence": "CTATTGAC", "PBM E-score": "inactive: 0.0132"},
      {"sequence": "ATGCTACA", "PBM E-score": "inactive: 0.26"},
      {"sequence": "CCTGCACG", "PBM E-score": "inactive: -0.0334"},
      {"sequence": "AAGGTAGC", "PBM E-score": "inactive: -0.125"},
      {"sequence": "CGCCCACA", "PBM E-score": "inactive: -0.118"},
      {"sequence": "ACAGGTGG", "PBM E-score": "inactive: 0.0225"},
      {"sequence": "ATAAGCCA", "PBM E-score": "inactive: 0.00974"},
      {"sequence": "ATAGGGCG", "PBM E-score": "inactive: -0.159"},
      {"sequence": "AGCGTTCG", "PBM E-score": "inactive: -0.141"},
      {"sequence": "CGTAGACC", "PBM E-score": "inactive: -0.149"},
      {"sequence": "TAAAGGAA", "PBM E-score": "inactive: 0.07"}
    ]}
  ]
}
